Assay results reported in publication PMC4336329 (PLoS ONE, 2015).
The campaign covered roughly 310,000 compounds. About 14,000 (4.5%) showed an effect of 50% or more. Effects have a minus sign here. This is one part of the list.

Target: human ether-à-go-go-related gene (hERG) potassium channel (human, UniProt Q12809)
Test: primary screen, population patch clamp on CHO cells stably expressing hERG
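Note: peak tail current of the secondary pulse compared with the same well before compound.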

Sequence of human ether-à-go-go-related gene (hERG) potassium channel (Q12809 whole entry, looked up): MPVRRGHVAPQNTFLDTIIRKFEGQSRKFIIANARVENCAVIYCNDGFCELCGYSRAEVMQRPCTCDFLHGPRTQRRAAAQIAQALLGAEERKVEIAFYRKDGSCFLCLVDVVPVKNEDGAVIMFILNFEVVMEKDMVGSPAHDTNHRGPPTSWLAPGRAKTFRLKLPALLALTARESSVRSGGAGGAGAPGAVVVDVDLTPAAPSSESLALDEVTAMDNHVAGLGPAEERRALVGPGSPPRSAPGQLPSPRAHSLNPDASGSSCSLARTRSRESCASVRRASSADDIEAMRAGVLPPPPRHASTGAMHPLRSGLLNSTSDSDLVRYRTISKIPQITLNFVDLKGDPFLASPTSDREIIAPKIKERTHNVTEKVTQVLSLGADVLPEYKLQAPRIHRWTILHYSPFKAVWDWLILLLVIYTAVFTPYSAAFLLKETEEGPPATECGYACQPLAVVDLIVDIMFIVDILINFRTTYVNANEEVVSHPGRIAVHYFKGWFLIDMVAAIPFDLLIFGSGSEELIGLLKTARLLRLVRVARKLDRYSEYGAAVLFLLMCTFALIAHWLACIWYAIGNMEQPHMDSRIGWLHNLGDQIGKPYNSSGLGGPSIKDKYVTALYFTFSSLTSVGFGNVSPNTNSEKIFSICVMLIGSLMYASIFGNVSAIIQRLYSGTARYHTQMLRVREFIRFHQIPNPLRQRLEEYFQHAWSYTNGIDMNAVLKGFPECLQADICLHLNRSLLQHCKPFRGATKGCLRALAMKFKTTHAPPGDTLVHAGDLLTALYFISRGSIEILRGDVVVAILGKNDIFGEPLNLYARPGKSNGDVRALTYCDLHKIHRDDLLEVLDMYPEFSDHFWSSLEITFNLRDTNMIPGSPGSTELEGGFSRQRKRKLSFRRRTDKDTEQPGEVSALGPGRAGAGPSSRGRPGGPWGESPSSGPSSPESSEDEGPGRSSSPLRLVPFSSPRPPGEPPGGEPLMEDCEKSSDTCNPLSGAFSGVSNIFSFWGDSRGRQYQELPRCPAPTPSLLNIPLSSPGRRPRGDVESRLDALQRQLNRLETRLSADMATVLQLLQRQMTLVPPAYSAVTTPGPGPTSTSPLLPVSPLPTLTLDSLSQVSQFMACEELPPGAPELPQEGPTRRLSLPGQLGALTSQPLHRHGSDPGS

Structure (SMILES)	hERG current change (%, negative = inhibition) at 10uM [%]
O=C(NCc1cccnc1)Nc1ccc2c(c1)OCO2	-7.04
CCOc1ccc(NC(=O)C2CC3CCC2C3)cc1 (stereo not shown)	16.8
COc1ccccc1N1CCN(Cc2ccc(Br)o2)CC1	0.167
Cc1cccc(/C=N/NC(=O)c2cccc(NC(=O)c3ccccc3)c2)n1	0.172
CCCCNC(=O)CSc1nc2ccc(C)cc2[nH]1	17.6
CCOc1c(Br)cc(/C=N\NC(=O)c2ccccc2)cc1OC	20.8
CCn1c(/C=C/N(C)c2ccccc2)[n+](CC)c2ccc(Cl)cc21.[I-]	-16
O=C(O)CSc1nnc(-c2ccc(S(=O)(=O)N3CCCC3)cc2)n1Cc1ccco1	7.69
CC1(C)CC(NC(=O)CSc2ccccc2)CC(C)(C)N1	11.3
CCCCN(C(=O)c1ccc(OC(F)(F)F)cc1)c1c(N)n(CCC)c(=O)[nH]c1=O	28
Cc1ccc(C(=O)Oc2ccc(/C=N/NC(N)=O)cc2)cc1	25
CCCNC(=O)C1CC(c2ccccc2C(F)(F)F)=NO1 (stereo not shown)	18
O=C(CCNC(=O)c1ccc(Br)cc1)Nc1ccccc1N1CCOCC1	-9.58
Cc1ccc(C2c3[nH]c4ccccc4c3C[C@H]3C(=O)N(c4ccccc4C(=O)N4CCC(C(=O)O)CC4)C(=O)N23)cc1 (stereo partly shown)	-0.711
COc1ccc2cc(CCNS(=O)(=O)c3c(C)cc(C)cc3C)c(=O)[nH]c2c1	4.3
COCCCNC(=O)CCN1C(=O)COc2ccccc21	10
Cc1cc(-c2nnc(SCC(=O)Nc3cccc(C)c3C)n2N)n[nH]1	-1.05
Cc1ccc(S(=O)(=O)NCC(=O)OCC(=O)Nc2ccccc2OC(F)F)cc1	-0.342
O=C(c1ccc(Cl)c(Cl)c1)N1CCCC1	12.9
COc1ccc(NC(=O)COC(=O)C2CC(=O)N(c3ccc(C)cc3)C2)cc1 (stereo not shown)	2.68
CN(C)c1cccc(C(=O)OCC(=O)N(C)c2ccccc2)c1	8.46
Cc1cc(C)cc(OCC(=O)NNC(=O)c2cc(C)[nH]n2)c1	13.9

Structure (SMILES)	hERG current change (%, negative = inhibition) at 10uM [%]
Cc1nnc(NC(=O)c2csc3c2CCC(C)C3)s1 (stereo not shown)	13.9
Cc1ccc(C(=O)NCCc2nnc3ccc(SCC(=O)Nc4c(C)cc(C)cc4C)nn23)cc1	-15.8
C=C(C)c1cccc(C(C)(C)NC(=O)Nc2ccccc2OCC)c1	19.1
CCn1c(CNS(=O)(=O)c2ccc(Br)cc2)n[nH]c1=S	14.6
Cc1c(C(=O)NNC(=S)NCc2ccc(Cl)cc2)oc2ccccc12	14.5
O=C(c1ccc(Br)s1)N1CCN(c2ccccn2)CC1	3.23
COc1ccccc1CNc1ncnc2nc[nH]c12	0.516
Cn1cccc1C(=O)NC(=O)COC(=O)CNC(=O)CNC(=O)c1ccc(Cl)cc1Cl	9.93
O=C1OC(c2ccc(Br)cc2)=N/C1=C\c1ccco1	26.3
COc1ccc(C(=O)/C(=C/c2cccs2)c2nc3ccccc3o2)cc1	-2.22
COc1ccc(CNC(=O)CC23CC4CC(CC(C4)C2)C3)cc1OC	-1.44
CC1Cc2nc(SCC(=O)N3CCN(c4ccccc4)CC3)n(C)c(=O)c2S1 (stereo not shown)	-26.4
O=C(CSc1nnc(CNC(=O)C23CC4CC(CC(C4)C2)C3)n1-c1ccc(F)cc1)Nc1ccc(F)cc1	-8.25
O=C(C1CC1)N1CCN(c2ccnc3cc(Cl)ccc23)CC1	-73.6
Cc1cc(C)cc(OCC(=O)N/N=C/c2ccc([N+](=O)[O-])o2)c1	-15.4
CC(C)C(=O)N(c1cc2sc(=O)oc2c2ccccc12)S(=O)(=O)c1cccs1	9.49
O=C(Nc1cccc(Cl)c1)c1cnccn1	8.67
COCCNC(=O)CCc1c(C)nc2nc(-c3cc(OC)cc(OC)c3)nn2c1C	-1.73
CCN(CC)S(=O)(=O)c1ccc(N2CCOCC2)c(NC(=O)c2ccc(NC(C)=O)cc2)c1	-0.15
COc1ccc(NC(=O)Nc2cccc3ccccc23)cc1S(N)(=O)=O	16
Cc1ccc(C2CN(c3ccccc3)CC2C(=O)c2ccc(F)cc2)cc1 (stereo not shown)	-17
C=Cn1c(C(=O)O)ccc1-c1ccc(CC)cc1	-5.29

Structure (SMILES)	hERG current change (%, negative = inhibition) at 10uM [%]
CCOC(=O)c1c(C)c(-c2ccccc2)n(CC(=O)N2CCCC2)c1C	-12.2
CC(=O)N(/N=C1\Sc2ccccc2C1=O)c1cccc(C)c1	-14.1
O=C(CN(CCc1ccccc1)S(=O)(=O)c1ccc(Br)cc1)N/N=C/c1ccc2c(c1)OCO2	3.05
Cc1ccc(CSc2nc3c(c(SCC(=O)O)n2)CCCC3)cc1	2.76
COc1ccc(NC(=O)Nc2ccccc2C)c(OC)c1	22.1
CCSc1nc2c(c(-c3ccc(C)o3)c1C#N)CCCC2	-6.11
CC(=O)[N-]S(=O)(=O)c1ccc(N)cc1.O.[Na+]	16.9
CC12C=CC(=O)C=C1CCC1C2C(=O)C[C@@]2(C)C1CCC2(O)C(=O)CO (stereo partly shown)	25.3
CCOC(=O)c1oc2ccc(Br)cc2c1NC(=O)CN1CCN(C)CC1	-65.8
O=CN/N=C/c1c(O)ccc2ccccc12	8.94
Cc1ccc(C(=O)COC(=O)c2cc(Cl)nc3ccccc23)cc1C	5.82
Cc1nc(N2CCCCC2)sc1C(=O)c1ccc(SCCO)c([N+](=O)[O-])c1	-28.4
COc1ccc(/C=C2\SC(=S)N(Cc3cccnc3)C2=O)cc1C	-3.04
CC(C(=O)OCc1nnc(-c2ccccc2)o1)N1C(=O)C2CCCCC2C1=O (stereo not shown)	9.77
Cc1c(NC(=S)NC(NC(=O)CC(C)C)C(Cl)(Cl)Cl)c(=O)n(-c2ccccc2)n1C (stereo not shown)	9.77
Cc1nnn(C23CC4CC(CC(CC(=O)Nc5ccc(C)c(Cl)c5)(C4)C2)C3)n1	-3.04
Cc1ccc(OCC(=O)Nc2ccc(NC(=O)c3cccs3)cc2)c(C)c1	18.6
Cc1ccc(S(=O)(=O)N/N=c2\oc3ccccc3cc2C(=O)Nc2cccc(C)c2)cc1	-68.1
O=C(Nc1ccc(S(=O)(=O)Nc2nccs2)cc1)c1c(F)c(F)c(F)c(F)c1F	-7.41
Cc1ccc(F)cc1NC(=S)NCCc1ccccc1	10.4
COc1ccc(S(=O)(=O)NCc2ccccn2)cc1NC(=O)c1ccccc1F	13.3
CCOC(=O)COc1cccc2c(=O)n(CC(=O)NCc3ccc4c(c3)OCO4)ccc12	10.4

Structure (SMILES)	hERG current change (%, negative = inhibition) at 10uM [%]
CN(Cc1ccccc1)C(=O)COc1ccc(Br)cc1Cl	-28.1
Cc1ccccc1NC(=O)/C(C#N)=C/c1ccc[nH]1	21.2
CC1=NNC(=O)C1CCC(=O)N/N=C\c1cccc(Cl)c1 (stereo not shown)	17.9
CS(=O)(=O)Nc1ccc(S(=O)(=O)NC2CCCCC2)cc1	-5.38
CS(=O)(=O)c1ccc2nc(NC3(C(F)(F)F)N=C4SCCN4C3=O)sc2c1 (stereo not shown)	-3.53
O=C(Nc1ccc2nc(-c3ccc(Br)o3)[nH]c2c1)c1cccs1	-11.1
CCCC(C)NC(=O)c1sc2nc3n(c(=O)c2c1C)CCC3 (stereo not shown)	-6.29
CC1(c2ccc(OC(F)F)cc2)NC(=O)N(CC(=O)NC2CCCC2)C1=O (stereo not shown)	-30.1
O=C(NCC(=O)N(c1ccc2c(c1)OCCO2)C(C(=O)NC1CCCC1)c1ccco1)c1ccco1 (stereo not shown)	-47.2
Oc1[nH]c2ccc(Br)cc2c1N=NC(=S)Nc1ccc(F)cc1	20.1
S=C(NCC1CCCO1)N1CCN(c2ccc(Cl)c(Cl)c2)CC1 (stereo not shown)	-11.2
O=C1C2CCCN2C(c2ccccc2)N1c1nccs1 (stereo not shown)	17.7
COc1ccc(N2CCN(Cc3nc4cc(Cl)ccc4c(=O)[nH]3)CC2)cc1	13.4
CSc1nc(N)c2c3c(sc2n1)CN(C)CC3	-12
C=CCNCCCCOc1ccc(OCc2ccccc2)cc1.O=C(O)C(=O)O	-42.1
O=C(Cc1ccccc1)NN1C(=O)C2C3C=CC(C3)[C@@H]2C1=O (stereo partly shown)	11
O=C(N1CCOCC1)N1CCN(S(=O)(=O)c2cccc([N+](=O)[O-])c2)CC1	-1.19
Cc1ccc(NC(=O)CSCC(=O)Nc2ccccc2C(=O)N2CCCCC2)cc1	6.12
NC(=S)Nc1nc2ccccc2s1	15.2
COc1cc(C(C(=O)NC(C)(C)C)N(Cc2ccccc2)C(=O)c2cnccn2)cc(OC)c1OC (stereo not shown)	5.8
Cn1cccc1/C=C1\SC(=Nc2ccccc2)NC1=O	12.3
CCOc1ccccc1C1NC(=O)NC(C)=C1C(=O)OCc1ccccc1 (stereo not shown)	7.91
